# This is one part of the list.
# Key:
# Test in all cases: glycan array binding signal (z-score within array); higher = stronger binding
# Conditions in all cases: glycan notation: IUPAC condensed, linker removed
# [1] = biological target: Fuc(a1-3)[Gal3S(b1-4)]GlcNAc6S
# Procedure, shortened: (§1)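 The Consortium for Functional Glycomics database supplied 3228 glycan arrays, of which those lacking an available protein sequence were dropped. The binding signal, a within-array Z-score, was averaged across arrays of the same protein sequence and across linkers. Negative scores can be read as non-binding.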
# [2] = biological target: Fuc(a1-3)[GalNAc(b1-4)]GlcNAc
# Procedure, shortened: as §1
# [3] = biological target: Fuc(a1-3)[GalNAc(b1-4)]GlcNAc6S
# Procedure, shortened: as §1
# [4] = biological target: Fuc(a1-4)GlcNAc
# Procedure, shortened: as §1
# [5] = biological target: Fuc(b1-3)GlcNAc
# Procedure, shortened: as §1
# [6] = biological target: Gal(a1-2)Gal
# Procedure, shortened: as §1
# [7] = biological target: Gal(a1-3)Gal
# Procedure, shortened: as §1
# [8] = biological target: Gal(a1-3)Gal(b1-3)GlcNAc
# Procedure, shortened: as §1
# [9] = biological target: Gal(a1-3)Gal(b1-3)GlcNAc(b1-2)Man
# Procedure, shortened: as §1
# [10] = biological target: Gal(a1-3)Gal(b1-3)GlcNAc(b1-2)Man(a1-3)[Gal(a1-3)Gal(b1-3)GlcNAc(b1-2)Man(a1-6)]Man(b1-4)GlcNAc(b1-4)GlcNAc
# Procedure, shortened: as §1
# [11] = biological target: Gal(a1-3)Gal(b1-3)GlcNAc(b1-3)GalNAc
# Procedure, shortened: as §1
# [12] = biological target: Gal(a1-3)Gal(b1-3)GlcNAc(b1-6)GalNAc
# Procedure, shortened: as §1
# [13] = biological target: Gal(a1-3)Gal(b1-3)[Fuc(a1-4)]GlcNAc(b1-2)Man(a1-3)[Gal(a1-3)Gal(b1-3)[Fuc(a1-4)]GlcNAc(b1-2)Man(a1-6)]Man(b1-4)GlcNAc(b1-4)GlcNAc
# Procedure, shortened: as §1
# [14] = biological target: Gal(a1-3)Gal(b1-4)Glc
# Procedure, shortened: as §1
# [15] = biological target: Gal(a1-3)Gal(b1-4)GlcNAc
# Procedure, shortened: as §1
# [16] = biological target: Gal(a1-3)Gal(b1-4)GlcNAc(b1-2)Man
# Procedure, shortened: as §1
# [17] = biological target: Gal(a1-3)Gal(b1-4)GlcNAc(b1-2)Man(a1-3)[Gal(a1-3)Gal(b1-4)GlcNAc(b1-2)Man(a1-6)]Man(b1-4)GlcNAc(b1-4)GlcNAc
# Procedure, shortened: as §1
# [18] = biological target: Gal(a1-3)Gal(b1-4)GlcNAc(b1-3)GalNAc
# Procedure, shortened: as §1
# [19] = biological target: Gal(a1-3)Gal(b1-4)GlcNAc(b1-6)GalNAc
# Procedure, shortened: as §1
# [20] = biological target: Gal(a1-3)Gal(b1-4)[Fuc(a1-3)]GlcNAc
# Procedure, shortened: as §1
# [21] = biological target: Gal(a1-3)Gal(b1-4)[Fuc(a1-3)]GlcNAc(b1-2)Man(a1-3)[Gal(a1-3)Gal(b1-4)[Fuc(a1-3)]GlcNAc(b1-2)Man(a1-6)]Man(b1-4)GlcNAc(b1-4)GlcNAc
# Procedure, shortened: as §1
# [22] = biological target: Gal(a1-3)GalNAc
# Procedure, shortened: as §1
# [23] = biological target: Gal(a1-3)[Gal(a1-4)]Gal(b1-4)GlcNAc
# Procedure, shortened: as §1
# [24] = biological target: Gal(a1-4)Gal(b1-3)GlcNAc(b1-2)Man(a1-3)[Gal(a1-4)Gal(b1-3)GlcNAc(b1-2)Man(a1-6)]Man(b1-4)GlcNAc(b1-4)GlcNAc
# Procedure, shortened: as §1
# [25] = biological target: Gal(a1-4)Gal(b1-4)Glc
# Procedure, shortened: as §1
# [26] = biological target: Gal(a1-4)Gal(b1-4)GlcNAc
# Procedure, shortened: as §1
# [27] = biological target: Gal(a1-4)Gal(b1-4)GlcNAc(b1-2)Man(a1-3)[Gal(a1-4)Gal(b1-4)GlcNAc(b1-2)Man(a1-6)]Man(b1-4)GlcNAc(b1-4)GlcNAc
# Procedure, shortened: as §1
# [28] = biological target: Gal(a1-4)Gal(b1-4)GlcNAc(b1-3)Gal(b1-4)Glc
# Procedure, shortened: as §1
# [29] = biological target: Gal(a1-4)GlcNAc
# Procedure, shortened: as §1
# [30] = biological target: Gal(a1-6)Glc
# Procedure, shortened: as §1
# [31] = biological target: Gal(b1-2)Gal
# Procedure, shortened: as §1
# [32] = biological target: Gal(b1-3)Gal
# Procedure, shortened: as §1
# [33] = biological target: Gal(b1-3)Gal(b1-4)GlcNAc
# Procedure, shortened: as §1
# [34] = biological target: Gal(b1-3)GalNAc
# Procedure, shortened: as §1
# [35] = biological target: Gal(b1-3)GalNAc(a1-3)[Fuc(a1-2)]Gal(b1-4)Glc
# Procedure, shortened: as §1
# [36] = biological target: Gal(b1-3)GalNAc(a1-3)[Fuc(a1-2)]Gal(b1-4)GlcNAc
# Procedure, shortened: as §1
# [37] = biological target: Gal(b1-3)GalNAc(b1-3)Gal
# Procedure, shortened: as §1
binder,measurement,setting,value
PX9961T-pdi-555-33-555 (Parabacteroides distasonis) (protein) FDEETAFQSPTLVYVNTVASLYNNMFKIMGNDRHVYDLNTFSSDEAMLPCRIGDWEDGGLWQNIFLHRWGTMNDLTKNSWDFLYEQIGKCNQSVDKLQAFAEEQPDVEYFKVYLEEVRAVRAFFYYELLDLFARVPLVTSSTTPMSEVKQSERSVVFNFVRSELEEALPYLSDNRSNQKGEYYGRITKPVAYMILAKLALNAEVYADDNWTDGNRPAGKNIKFTVDGKEMNAWEATIAYVDKLEALGYKLQGNFSENFAVANETSVENIFTVPMDPVAYPDAKDYNLVRTRHYDHATAYGQSGWNGSCATVKAMNVFKFGTADEDPRCKLTYFTGEVTGPDGKTIYTEWDGQKVPLKYEPNAPKVYMDASDGLLVKTAGARMAKYEFDQNAQDGGNLHGNDCVIFRFADALLMKAEAKIRLGQNGDDEVNQVRNRVGAKPLQNVTLDTLLDERMLELAWEGVRRQDLIRFGKFTEATVDRYVGVKHFASSLDYQEDKTGYTTVFSIYADILSLNPNLTQNPGY,glycan array binding signal (z-score),[1],0.036
same,glycan array binding signal (z-score),[2],0.038
same,glycan array binding signal (z-score),[3],-0.391
same,glycan array binding signal (z-score),[4],0.265
same,glycan array binding signal (z-score),[5],0.329
same,glycan array binding signal (z-score),[6],0.275
same,glycan array binding signal (z-score),[7],-0.435
same,glycan array binding signal (z-score),[8],-0.206
same,glycan array binding signal (z-score),[9],-0.596
same,glycan array binding signal (z-score),[10],0.237
same,glycan array binding signal (z-score),[11],-0.176
same,glycan array binding signal (z-score),[12],-0.21
same,glycan array binding signal (z-score),[13],-0.349
same,glycan array binding signal (z-score),[14],0.197
same,glycan array binding signal (z-score),[15],0.037
same,glycan array binding signal (z-score),[16],0.022
same,glycan array binding signal (z-score),[17],0.963
same,glycan array binding signal (z-score),[18],-0.098
same,glycan array binding signal (z-score),[19],0.534
same,glycan array binding signal (z-score),[20],0.759
same,glycan array binding signal (z-score),[21],0.592
same,glycan array binding signal (z-score),[22],-0.109
same,glycan array binding signal (z-score),[23],0.147
same,glycan array binding signal (z-score),[24],2.7
same,glycan array binding signal (z-score),[25],-0.075
same,glycan array binding signal (z-score),[26],-0.041
same,glycan array binding signal (z-score),[27],1.51
same,glycan array binding signal (z-score),[28],-0.278
same,glycan array binding signal (z-score),[29],-0.332
same,glycan array binding signal (z-score),[30],0.668
same,glycan array binding signal (z-score),[31],0.357
same,glycan array binding signal (z-score),[32],-0.817
same,glycan array binding signal (z-score),[33],-0.663
same,glycan array binding signal (z-score),[34],0.013
same,glycan array binding signal (z-score),[35],0.663
same,glycan array binding signal (z-score),[36],-0.258
same,glycan array binding signal (z-score),[37],-0.204
